Results: PubChem BioAssay AID1345082 (National Center for Advancing Translational Sciences (NCATS), 2018)
The campaign covered roughly 94,000 compounds. About 4,000 (4.3%) were called active. Inconclusive results, whose numbers are uncertain, are shown with a selection of clear calls. The call rests on the fitted dose curve; in most records, active means well fitted inhibition curve with a large enough effect; inconclusive means small, poorly fitted or top-dose-only effect; inactive means no such curve, though single readings can be large or run the other way. A potency beside an inconclusive call is a rough fit, not a confirmed value.

Assay: Cytotoxic Profiling in NIH 3T3 Cell Line of Diverse Libraries Using Quantitative High-Throughput Screening; further: nearly all actives have a fitted effect of over 55% in size
Details: NIH 3T3 viability, CellTiter-Glo ATP luminescence, 48-72 h; activity change, negative = cytotoxicity: at 96.7 µM (top of the series) unless noted; series mostly up to 96.7 µM
Outline: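 Cytotoxicity is measured as loss of cellular ATP: NIH 3T3 cells (400/well) are exposed to compound for 48 or 72 hr at 37 °C, then CellTiter-Glo luminescence is imaged after 10 min at room temperature.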
On the % scale 0 is the no-effect control and ±100 the full control effect; potency means the concentration at half of the fitted maximal effect; tags describe the fitted curve by direction and shape.

SMILES	Potency	outcome	activity change, negative = cytotoxicity
C#CCNC(=O)[C@@H]1Cc2c[nH]c3cccc(c23)[C@H](CC(C)C)N1	active: 100 µM	–	–
CCN1c2cc(C(=O)Nc3ccc(Cl)c(F)c3)ccc2C(=O)N2CCCCCC21 (stereo not given)	inconclusive: 44.7 µM [inhibitor, partial curve, poor fit]	–	–
CCc1cccc(NC(=O)C2CCN(C(=O)c3nnn4c3COC(c3ccc(C)cc3)C4)CC2)c1 (stereo not given)	active: 22.4 µM	–	–
Cc1ccc(C(=O)N2CCN(Cc3ccccc3-c3ccccc3F)CC2)cc1	inconclusive: 50.1 µM [inhibitor, partial curve, poor fit]	–	–
Cc1cccc(-c2nc3ccc(C(=O)NCc4ccccc4Cl)cc3o2)n1	inconclusive: 50.1 µM [inhibitor, partial curve, poor fit]	–	–
COc1cccc(C(=O)NC2CN(c3ccnc4ccnn34)C2)c1	inconclusive: 50.1 µM [inhibitor, partial curve, poor fit]	–	–
O=C(Nc1cccc(Cl)c1)C1CN(C2CCCC2)C(=O)N1 (stereo not given)	inconclusive: 79.4 µM [inhibitor, partial curve, poor fit]	–	–
O=C(Nc1cccc(C(F)(F)F)c1)O[C@@H]1CO[C@H]2[C@@H]1OC[C@@H]2NS(=O)(=O)c1cccs1	inconclusive: 50.1 µM [inhibitor, partial curve, poor fit]	–	–
COCC(=O)NC[C@@H]1C=C(C)[C@H](CC(=O)O)C[C@H]1C(C)C	–	inactive [at 138 µM]	–
O=C(NCCCc1ccccc1)c1nc2cccnc2n(Cc2ccccc2)c1=O	inconclusive: 50.1 µM [inhibitor, partial curve, poor fit]	–	–
CCn1c(=O)c2c(cc(C)n2C)n(CC(=O)Nc2ccc(OC)c(Cl)c2)c1=O	inconclusive: 2.82 µM [inhibitor, full curve, poor fit]	–	–
Cc1ccc(-n2nc3n(c2=O)CCN(C(=O)C(C)(C)C)C3)cc1	active: 50.1 µM	–	–
CC(C)NC(=O)c1ccccc1OCC1CCCN(Cc2ccc(F)cc2)C1 (stereo not given)	inconclusive: 50.1 µM [inhibitor, single point]	–	–
COc1cccc(NC(=O)c2cc3c(n2C)CCN(Cc2ccc(F)cc2)C3)c1	–	–	inactive: -13.6%
CN1CCCCCCN(C(=O)Cn2c(=O)oc3ccccc32)[C@H]2CCC[C@H]2C1=O	inconclusive: 79.4 µM [inhibitor, single point]	–	–
COc1nc2nc(CCc3ccccc3)n(C)c2cc1-c1cccc(CO)c1	inconclusive: 89.1 µM [inhibitor, partial curve, poor fit]	–	–
COc1ccccc1CN1CCN(C(=O)c2ccc3c(c2)C(O)CCCCCN3C)CC1 (stereo not given)	inconclusive: 50.1 µM [inhibitor, partial curve, poor fit]	–	–
C=CCOC(=O)C1=C(C)N(Cc2cccc(Cl)c2)C(=O)CC1c1ccccc1Cl (stereo not given)	–	–	inactive: -25.1%
NC(=O)COc1ccccc1CN(Cc1ccsc1)CC1CCCO1 (stereo not given)	–	–	inactive: -9.05%
CCCN(CC1CCOC1)C(=O)Nc1ccc(OCC)cc1 (stereo not given)	–	inactive	–
O=C(c1c(F)ccc(F)c1F)N1CCCC(c2nc(-c3ccncc3)ncc2-c2ccccc2)C1 (stereo not given)	inconclusive: 79.4 µM [inhibitor, partial curve, poor fit]	–	–
CC1=C(C(=O)OC(C)C)C(c2ccccc2Cl)N2C(CC(=O)NCC3CC3)=CSC2=N1 (stereo not given)	inconclusive: 44.7 µM [inhibitor, partial curve, poor fit]	–	–

SMILES	Potency	outcome	activity change, negative = cytotoxicity
O=C(C1CCOCC1)N1C[C@H]2OC(=O)N(CCc3cccc(Cl)c3)[C@H]2C1	–	–	inactive: -12.3%
COc1cccc(CCNC(=O)C2CCCCN2Cc2ccc(-c3cc(F)ccc3OC)cc2)c1 (stereo not given)	inconclusive: 15.8 µM [inhibitor, full curve]	–	–
Cc1cc2cc(-c3c(C)noc3C)nc(Nc3ccc(F)cc3)c2o1	inconclusive: 11.2 µM [inhibitor, full curve, poor fit]	–	–
CCc1cccc2c(C(CC(=O)NC(C)CC)c3cccc(OC)c3)c[nH]c12 (stereo not given)	inconclusive: 50.1 µM [inhibitor, partial curve, poor fit]	–	–
Cc1noc([C@@H](C)NC(=O)c2nc3ccccc3[nH]2)c1C(=O)O	–	–	inactive: -4.27% [at 174 µM]
CCNC(=O)C1C(c2ccc(NC(=O)c3cccc(Cl)c3)cc2)OC(=O)N1Cc1ccc(C)cc1 (stereo not given)	inconclusive: 35.5 µM [inhibitor, partial curve]	–	–
CCOc1cccc2c1OC[C@@H]1CN(C)C(=O)CCN(C(C)=O)[C@H]21	inconclusive: 79.4 µM [inhibitor, partial curve, poor fit]	–	–
CC(C)CCN1CCC(N2CCN(S(=O)(=O)C(C)C)CC2)C1=O (stereo not given)	–	inactive	–
O=C1CCCN1CCCN1C(=O)[C@@H]2C[C@@H](O)CN2C2(CN(C3CCOCC3)C2)C1=O	–	–	inactive: -0.373% [at 174 µM]
CC(=O)Nc1ccc(S(=O)(=O)NC[C@@H]2C=C(C)[C@H](CC(=O)NC3CCCC3)C[C@H]2C(C)C)cc1	inconclusive: 79.4 µM [inhibitor, partial curve]	–	–
CC(C)NC(=O)NC1CCN(Cc2cccc(-c3ccc(F)c(F)c3)c2)CC1	inconclusive: 39.8 µM [inhibitor, partial curve, poor fit]	–	–
COCCNC(=O)C1CCCN(Cc2cccc(-c3cccc(C)c3)c2)C1 (stereo not given)	inconclusive: 50.1 µM [inhibitor, partial curve, poor fit]	–	–
Cc1ccccc1S(=O)(=O)N1CCCC(CCC(=O)Nc2cccc(Cl)c2)C1 (stereo not given)	inconclusive: 17.8 µM [inhibitor, full curve]	–	–
O=C(C1CC(=O)N(c2n[nH]c3cc(Br)ccc23)C1)N1CCSCC1 (stereo not given)	inconclusive: 22.4 µM [inhibitor, single point]	–	–
CC(=O)/C=C/C1=CC(C)(C)COc2ccc(O)cc21	active: 25.1 µM	–	–
COc1cccc(C(=O)NCCNC(=O)c2cccc(-c3cc(F)ccc3OC)c2)c1	active: 44.7 µM	–	–
O=C(c1ccccc1C(F)(F)F)N1CCOc2ccc(CN3CCOCC3)cc2C1	–	inactive	–
Cc1ccc(CN2CCC3(CC2)CC(c2ccccc2)C(=O)N3C)cc1F (stereo not given)	inconclusive: 35.5 µM [inhibitor, partial curve]	–	–
COc1ccc(C(=O)Nc2ccc3c(c2)CN(Cc2ccccc2Cl)C(=O)C(C)O3)cc1OC (stereo not given)	inconclusive: 22.4 µM [inhibitor, full curve]	–	–
Cc1cnc(C2CC2)n1C1CCCN(C(=O)c2ccco2)C1 (stereo not given)	–	–	inactive: -14.6%
CC(C)(C)NC(=O)N1CCCN(S(=O)(=O)c2ccccc2)CCC(=O)NCC1	inconclusive: 70.8 µM [inhibitor, single point]	–	–
COc1ccc(NC(=O)Cn2c(N3CCC(C)CC3)nc(C)cc2=O)cc1	inconclusive: 22.4 µM [inhibitor, partial curve, poor fit]	–	–

SMILES	Potency	outcome	activity change, negative = cytotoxicity
CN(C)CCNC(=O)c1ccc(-c2ccc(N3CCCCCC3)nc2)cc1	active: 17.8 µM	–	–
COc1ccc(-c2ccnc(-c3nnc(C)n3CCN(C)C)c2)cc1OC	active: 25.1 µM	–	–
O=C(Nc1ccncn1)[C@@H]1C[C@@H](c2ccc(F)cc2)N(CCOc2ccccc2)C1	inconclusive: 89.1 µM [inhibitor, partial curve, poor fit]	–	–
Cc1nonc1CN(C)C(=O)CC(c1ccccc1)c1ccc2c(c1)OCO2 (stereo not given)	inconclusive: 79.4 µM [inhibitor, single point]	–	–
COc1ccccc1-c1[nH]nc2ncc(C(=O)Nc3ccc4[nH]ccc4c3)nc12	inconclusive: 50.1 µM [inhibitor, partial curve, poor fit]	–	–
CCn1ccc(C(=O)N2CCC3(CC2)CC(c2nnc(COC)o2)N(C)C3)n1 (stereo not given)	–	–	inactive: -1.86%
O=C(NC1CCCCC1)N1CCC(CCc2nc(C3CCOCC3)no2)CC1	inconclusive: 5.01 µM [inhibitor, full curve, poor fit]	–	–
Cc1nn(C)cc1CN1CCC(O)(c2ccccc2)[C@H](N2CCCC2)C1 (stereo not given in full)	inconclusive: 70.8 µM [inhibitor, single point]	–	–
COCCN1CC2(CCCN(c3cc(C)c4ccccc4n3)C2)CCC1=O (stereo not given)	–	–	inactive: 2.68%
O=C(NCC1CCN(c2cc(-c3ccccc3)[nH]n2)CC1)c1ccc[nH]1	inconclusive: 50.1 µM [inhibitor, partial curve, poor fit]	–	–
O=C(CC1=C2CCCCC2N(Cc2ccccc2)C1=O)NC1CCS(=O)(=O)C1 (stereo not given)	–	–	inactive: 0.0478%
CN1C[C@@H](NC(=O)c2ccc(-c3ccccc3)cc2)C[C@H]1c1nc(-c2ccncc2)no1	inconclusive: 44.7 µM [inhibitor, full curve]	–	–
c1cncc(CNc2cc(-c3cnc4ccccc4n3)c3cc[nH]c3n2)c1	inconclusive: 50.1 µM [inhibitor, partial curve, poor fit]	–	–
CNC(=O)c1nc2sccn2c1-c1ccc(C(F)(F)F)cc1	inconclusive: 89.1 µM [inhibitor, partial curve, poor fit]	–	–
CCN(CC)CC[C@H]1CN(C(=O)Cc2ccc(OC)cc2)CC[C@H]1CC(=O)O	–	–	inactive: 4.54% [at 174 µM]
CS(=O)(=O)N(C1CC1)C1CCOC2(CCN(C(=O)c3ccccc3F)CC2)C1 (stereo not given)	–	–	inactive: -19.9%
OCCC1CN(c2ccc(-c3nc(CCCc4ccccc4)no3)cn2)CCO1 (stereo not given)	inconclusive: 56.2 µM [inhibitor, partial curve, poor fit]	–	–
O=C(NCc1ccccc1F)c1ccc2oc(-c3ccncc3)nc2c1	–	–	inactive: -35.1%
COc1cccc(NC(=O)c2cnc3n2CCN(Cc2ccccc2)CC3)c1	inconclusive: 89.1 µM [inhibitor, partial curve]	–	–
O=C(C1CCN([S+](=O)([O-])c2ccccc2)CC1)N1CCC(c2nc3ncccc3[nH]2)CC1	–	–	inactive: -13.6%
COC(=O)NCCNC(=O)c1ccc(-c2cccc(C(F)(F)F)c2)cc1	inconclusive: 35.5 µM [inhibitor, partial curve, poor fit]	–	–
